According to PubChem BioAssay AID686979 (National Center for Advancing Translational Sciences (NCATS), 2013):
Values joined by “and” are separate entries in the source; they are usually repeats but may differ in a detail not shown here. Equal entries are not always repeated. The campaign covered roughly 420,000 compounds. About 50,000 (12%) were called active. Inconclusive results, whose numbers are uncertain, are shown with a selection of clear calls. Calls follow the shape of the dose curve; as a rule, active = well fitted inhibition curve with a large enough effect; inconclusive = small, poorly fitted or top-dose-only effect; inactive = flat fitted curve, though single readings scatter. Where the call is inconclusive, the potency comes from a doubtful curve fit.

Experiment: qHTS for Inhibitors of human tyrosyl-DNA phosphodiesterase 1 (TDP1): qHTS in cells in presence of CPT; also: nearly all actives have a fitted effect of over 55% in size
Settings: chicken DT40 Tdp1-/-;hTDP1 cells + 20 nM CPT, ATP luminescence, 48 h; activity change, negative = growth inhibition: at 46.2 µM (top of the series) unless noted
Outline: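 Chicken DT40 Tdp1-/- cells complemented with human TDP1, 400 cells/well, exposed to compounds plus 20 nM camptothecin for at least 48 h at 37 C; viability read as ATP content by CellTiter-Glo luminescence.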
% is scaled to controls: 0 for no effect and ±100 for the full control effect; potency is read from the fitted curve at half-maximal effect; tags tell the direction and shape of the fitted curve.

Structure (SMILES)	Potency	activity change, negative = growth inhibition
CC(=O)Nc1ccc(S(=O)(=O)N(C)CC(=O)OCC(=O)N(C)c2ccccc2)cc1	inactive	
CC(OC(=O)C1=COCCO1)C(=O)Nc1ncc(Cl)cc1Cl (centres undefined)		inconclusive: -30.5% [inhibitor]
O=C(OCCN1CCOCC1)c1ccccc1	inactive	
Cc1nc(Cl)sc1C(=O)O		inconclusive: -29.5% [inhibitor]
CCCOc1ccc2cc(-c3ccccn3)c(=O)oc2c1	inconclusive: 11.6 µM [inhibitor, partial curve]	
CC[C@]12C(=O)N(C)C[C@H]([C@@H]3C(=O)N(Cc4ccccc4)C(=O)[C@@H]31)N2C(=O)c1ccc(F)cc1	inactive	
Cc1ccc(Cn2cnc3nc4c(cc3c2=O)CCCC4)cc1	inconclusive: 29.1 µM [inhibitor, single point]	
CN(C)c1ccc(-c2cncnc2NCCc2cnc[nH]2)cc1	inconclusive: 3.66 µM [inhibitor, partial curve]	
C/C(=N\NC(=O)C(c1ccccc1)c1ccccc1)c1ccc(O)cc1	inconclusive: 16.4 µM [inhibitor, single point]	
Cc1cc(C)c(S(=O)(=O)N2CCN(C)CC2)c(C)c1	inactive	
Cc1ccc(C(=O)N2CCc3cc(CNC(=O)c4ccccc4F)ccc32)cc1	inconclusive: 18.4 µM [inhibitor, single point]	
COc1cccc(OC)c1OCCNC[C@@H]1COc2ccccc2O1	active: 26.6 µM	
O=C1CNC(=S)N1c1nc(-c2ccccc2)cs1	inactive	
Cn1c(=O)n(C)c2cc(CNCc3ccc(F)cc3)ccc21	inconclusive: 20.6 µM [inhibitor, single point]	
O=C(Nc1cccc2cccnc12)c1csc(COCCO)n1	active: 23.1 µM	
COc1ccc(Oc2ncc3nc(-c4ccccc4)c(=O)n(C4CC4)c3n2)cc1	inactive	
O=[N+]([O-])c1ccc(S(=O)(=O)NCC2CC3CCC2C3)cc1 (centres undefined)	inconclusive: 16.4 µM [inhibitor, single point]	
COC(=O)c1ccc(NC(=S)N2CCN(Cc3ccc(Cl)cc3)CC2)cc1	inconclusive: 29.1 µM [inhibitor, single point]	
CC(=O)S[C@@H]1CC2=CC(=O)CC[C@]2(C)[C@H]2CC[C@@]3(C)[C@@H](CC[C@@]34CCC(=O)O4)[C@H]12	active: 8.41 µM and active: 7.31 µM	
CSc1nsc(SCC(=O)Nc2ccc(Cl)c(C(=O)O)c2)n1	inactive	
O=C(CS(=O)(=O)c1ccc(Cl)cc1)Nc1nc2ccc(Br)cc2s1	inconclusive: 18.4 µM [inhibitor, single point]	
CSc1nccc(-c2cc(Cl)c3c(c2)CC(CNC(=O)c2ccc(C)nc2)O3)n1 (centres undefined)	inactive	
OC[C@@H]1[C@@H](c2ccc(Cl)cc2)C(c2ccccc2)=NN1c1ccccc1	inconclusive: 20.6 µM [inhibitor, single point]	
COc1ccc(CNC(=O)CCn2c(C)csc2=O)cc1	inactive	
CCO[C@@H]1OC(C(=O)NCc2ccccc2)=C[C@H](c2coc3ccccc3c2=O)[C@H]1CCCO	inactive	

Structure (SMILES)	Potency	activity change, negative = growth inhibition
O=C(COC(=O)/C=C/c1cn(-c2ccccc2)nc1-c1cccnc1)Nc1ccc(Cl)cc1Cl	active: 9.2 µM	
CN(C)C(CNC(=O)c1ccc2c(c1)S(=O)(=O)c1ccccc1C2=O)c1ccco1 (centres undefined)	inconclusive: 23.1 µM [inhibitor, single point]	
O=[N+]([O-])c1cc(/C=N/O)ccc1Sc1ccccc1	inconclusive: 29.1 µM [inhibitor, single point]	
O=C(CN1CCN(Cc2ccccc2Cl)CC1)N/N=C/c1ccccn1	inconclusive: 0.0046 µM [inhibitor, full curve, poor fit]	
C=CCN1C(c2cccc(C(F)(F)F)c2)=CS/C1=C(\C#N)c1nnc(N2CCOCC2)n1-c1ccccc1	active: 23.1 µM	
CCOC(=O)c1c(CC(C)C)csc1NC(=O)COC(=O)c1ccc(O)cc1	active: 23.1 µM	
O=C(NC1CCS(=O)(=O)C1)/C(=C/c1ccco1)NC(=O)c1ccccc1 (centres undefined)	inactive	
O=C(CN1CCN(c2ccccn2)CC1)Nc1ccc(OCc2ccccc2)cc1	inconclusive: 8.2 µM [inhibitor, partial curve]	
CCC(C)/C(C)=N/NC(=O)c1cn(-c2ccccc2)nc1-c1ccccc1 (centres undefined)	inactive	
Fc1ccccc1/C=C1\CCCC2=C1Nc1nnnn1C2c1ccccc1F (centres undefined)		inconclusive: -30.6% [inhibitor]
CC(NC(=O)c1ccccc1Cl)c1ccc(-n2ccnc2)cc1 (centres undefined)	inactive	
O=C(NNS(=O)(=O)c1ccc(F)cc1)c1ccc(S(=O)(=O)N2CCCCC2)cc1	inactive	
Fc1ccc(-c2nc3ccc(Cl)cn3c2Cc2ccccc2)cc1	inconclusive: 29.1 µM [inhibitor, single point]	
COc1ccc(NC(C)=O)cc1NC(=O)c1ccc2ccccc2c1	inactive	
CCCC/C=C/C(NC(=O)c1ccc(-c2ccccc2)cc1)c1ccccc1 (centres undefined)	inconclusive: 29.1 µM [inhibitor, single point]	
O=C(Nc1ccc2c(c1)OCO2)c1c[nH]c(=O)n(-c2ccc(F)cc2)c1=O	inactive	
CCOC(=O)c1ccc(S(=O)(=O)N2CCN(Cc3cc4c(cc3O)OCO4)CC2)cc1	inconclusive: 29.1 µM [inhibitor, single point]	
Cc1ccc(NC(=O)c2ccc(Cl)c(N3C(=O)C=CC3=O)c2)cc1	active: 1.16 µM	
COc1ccccc1OCC(=O)Nc1ccncc1	inactive	
COc1ccc(/C=N/NC(=O)c2sccc2C)c2ccccc12	inconclusive: 1.3 µM [inhibitor, full curve, poor fit]	
COC1OC2COC(c3ccccc3)OC2C(OC(=O)c2ccccc2)C1OC(=O)c1ccccc1 (centres undefined)	inconclusive: 29.1 µM [inhibitor, single point]	
Cc1ccc2c(c1)CN(CCNC(=O)c1n[nH]c3c1CCCC3)CC(C)O2 (centres undefined)		inconclusive: -25.2% [inhibitor] [at 9.04 µM]
O=[N+]([O-])c1c(C(Cl)Cl)nn(-c2ccccc2)c1N1CCOCC1	inconclusive: 23.1 µM [inhibitor, partial curve]	
CN1CCN(CCc2nc3cc(NC(=O)COc4ccc([N+](=O)[O-])cc4)ccc3n2C)CC1	inactive	
O=C1CC(c2ccncc2)c2cc3c(cc2N1)OCCO3 (centres undefined)	inactive	

Structure (SMILES)	Potency	activity change, negative = growth inhibition
COc1ccc(C(=O)c2ccc(OC)c(OC)c2)cc1OC	inconclusive: 29.1 µM [inhibitor, single point]	
CN1CCc2nc(SCC(=O)Nc3cccc(F)c3)c(C#N)c(-c3cccs3)c2C1	inconclusive: 25.9 µM [inhibitor, partial curve, poor fit]	
CC(Sc1nnc(-c2ccccc2)c(-c2ccccc2)n1)C(=O)NCC1CCCO1 (centres undefined)	inconclusive: 29.1 µM [inhibitor, single point]	
CC(=O)N1CCN(c2nc(-c3cccs3)nc3ccccc23)CC1	inactive	
CSc1ccc(CCNC(=O)CN2C(=O)COc3ccc(S(=O)(=O)N4CCCC4)cc32)cc1	active: 23.1 µM	
COc1cccc(-c2csc(N3CCN(C(=O)C4CCCCC4)CC3)n2)c1	inconclusive: 29.1 µM [inhibitor, single point]	
COc1ccc(-c2n(Cc3ccccc3)c3ccccc3[n+]2Cc2ccccc2)cc1	active: 0.461 µM	
O=c1c(-c2ccc(F)cc2)[n+]([O-])c2ccccc2n1OCc1ccccn1	inconclusive: 29.1 µM [inhibitor, single point]	
O=C(Nc1ccc2oc(-c3ccc4ccccc4c3)nc2c1)c1cccc(Cl)c1Cl	active: 8.2 µM	
CCc1ccc(NS(=O)(=O)c2ccc3c(c2)oc(=O)n3C)cc1	inconclusive: 11.6 µM [inhibitor, partial curve]	
NC(=NC(=O)c1ccccc1)N1CCN(C(c2ccccc2)c2ccccc2)CC1	active: 20.6 µM	
Cc1ccc2[nH]c(=O)c3cc(C(=O)NC(C)C)sc3c2c1	inconclusive: 18.4 µM [inhibitor, single point]	
CCOC(=O)C1=C(C)Nc2nc(SC)nn2C1c1ccc(C(=O)OC)cc1 (centres undefined)	inactive	
CC1(C(=O)Nc2cccc(C#N)c2)CCN1C(=O)C/C=C/c1ccccc1 (centres undefined)	inconclusive: 29.1 µM [inhibitor, single point]	
COC(=O)c1c(C)[nH]c(C(=O)CC#N)c1C	inactive	
COc1ccc(N(C)C(=O)c2ccc3c(Cl)c4c(nc3c2)CCCC4)c(OC)c1	inconclusive: 13 µM [inhibitor, partial curve]	
CCOc1ccc(NC(=O)c2cnn3c2NC(c2ccccc2)=CC3c2cccc(OC)c2OC)cc1 (centres undefined)	inconclusive: 25.9 µM [inhibitor, single point]	
O=S(=O)(NCc1cn2ccccc2n1)c1cc(F)ccc1F	inactive	
Cc1ccccc1-n1c(=O)c2ccccc2n(Cc2ccc(F)cc2)c1=O	inconclusive: 25.9 µM [inhibitor, single point]	
COc1ccc(C2CC(=O)N(Cc3cccc(C)c3)c3c2c(C)nn3-c2nc(C)cc(C)n2)c(OC)c1 (centres undefined)	inconclusive: 29.1 µM [inhibitor, single point]	
FC(F)(F)c1ccccc1-c1ccc2ncnc(NC3CC3)c2c1	active: 23.1 µM	
C#CCN(C(=O)CC1C(=O)NCCN1C/C=C/c1ccccc1)C1CCCCC1 (centres undefined)	inactive	
CCOC(=O)c1c(-c2ccc(C)o2)csc1NC(=S)NC(=O)c1ccccc1Br	active: 16.4 µM	
COc1ccccc1CN(C)C(=O)c1cc(-c2cc(OC)c(OC)c(OC)c2)nc2ccccc12	active: 23.1 µM	
